Experimental data: PubChem BioAssay AID1963576 (National Center for Advancing Translational Sciences (NCATS), 2024)
Out of some 46,000 compounds screened, about 60 (0.1%) were called active. Another 3% or so got no clear call; they are omitted. The call rests on the fitted dose curve; in most records, active means well fitted inhibition curve with a large enough effect; inconclusive means small, poorly fitted or top-dose-only effect; inactive means no such curve, though single readings can be large or run the other way. The list shows a part of the results.

test: Primary qHTS assay for Inhibitors of ovarian cancer metastasis using an organotypic tumor microenvironment (TME) model.; further: nearly all actives have a fitted effect of over 65% in size;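 on activity change, negative = inhibition: plate controls were DMSO wells for no effect and tomatine positive control wells for full effect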; conditions: SKOV3ip1-GFP adhesion/invasion on 3D omental model, fluorescence; series mostly up to 45.8 µM; activity change, negative = inhibition: at the top concentration
Outline: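 Primary human omental fibroblast/mesothelial 3D culture pre-formed 48 h. SKOV3ip1-GFP cells added with compounds (0.36-46 umol/L), incubated 2 h RT/16 h 37 C, fixed; GFP cells quantified at 488/509 nm.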

outcome, inactive:
O=C(NCCOCCn1c(=O)oc2ccccc21)Nc1ccc(F)cc1
COc1ccc2c(c1)c1c(c(=O)n(-c3ccccc3)c(=O)n1CC(=O)Nc1ccc(C)c(C)c1)n2C
COc1cc(NC(=O)CN2CCN(CC(=O)Nc3ccc(F)cc3)CC2)cc(OC)c1
COc1cc(C(CC(=O)NCCC(C)C)N2Cc3ccccc3C2=O)cc(OC)c1OC (stereo not given)
CN(C1CCCCC1)S(=O)(=O)c1ccc2c(c1)c(=O)c(C(=O)N1CCN(c3ccccc3F)CC1)cn2C
CCc1c(-c2ccccc2)nc2ccccc2c1C(=O)NCc1ccc(C)cc1
Cc1ccc(-c2nc(Cn3c(=O)cc(-c4ccccc4)c4c(C)nn(C)c43)c(C)o2)cc1
O=C(CSc1nnc(-c2ccc([N+](=O)[O-])cc2)o1)Nc1ccccc1
CSc1cccc(NS(=O)(=O)c2cn(C)c(C)n2)c1
Cn1cnc(S(=O)(=O)N2CCC(C(=O)N3CCN(c4ccccc4F)CC3)CC2)c1
O=C(CN1C(=O)COc2ccc(S(=O)(=O)Nc3ccccc3)cc21)Nc1cccc(Cl)c1
CC(C)(C)c1ccc(C(=O)N2CCCCC2CCN2CCCCC2)cc1 (stereo not given)
CCN(C(=O)Cn1cnc2sc(C)c(S(=O)(=O)N3CCN(c4ncccn4)CC3)c2c1=O)c1ccccc1F
CC(=O)c1ccc(NC(=O)CC(c2cccs2)N2Cc3ccccc3C2=O)cc1 (stereo not given)
CCOc1ccc(-c2cc(-c3nc(-c4ccc(OC)c(OC)c4)no3)[nH]n2)cc1
COc1ccc(CCNC(=O)CCc2c(C)c3cc4c(C)coc4c(C)c3oc2=O)cc1OC
CCOC(=O)c1ccc(NC(=O)c2ccc(=O)n(Cc3cccc(C)c3)c2)cc1
Cc1ccc(-n2ncc(C(=O)N3CCN(c4ccc(Cl)cc4)CC3)c2C2CCN(C(=O)OC(C)(C)C)CC2)c(C)c1
Cc1cc(Cl)ccc1OCC(=O)N(Cc1ccco1)Cc1ccco1
Cc1cc2c(cc1S(=O)(=O)CCC(=O)NCCc1ccccc1)OCC(=O)N2
COc1cc(OC)c(NS(=O)(=O)c2cc(-c3cnc(C4CC4)o3)ccc2C)cc1Cl
Cc1ccc(CCNC(=O)CCS(=O)(=O)c2cc3c(cc2C)NC(=O)CO3)cc1
COc1ccc(Cl)cc1NC(=O)CCCN1C(=O)C(c2ccccc2)Oc2cccnc21 (stereo not given)
COc1ccc(N2Cc3cccc(C(=O)Nc4ccc(F)cc4)c3C2=O)cc1
CCOCCCN(Cc1ccco1)S(=O)(=O)c1cc2c(cc1C)NC(=O)CO2

Activity change, negative = inhibition, inactive:
Cc1ccc(S(=O)(=O)c2cn(C)c3cc(N4CCCC(C)C4)c(F)cc3c2=O)c(C)c1 (stereo not given) -6.28%
Cc1cc2c(cc1S(=O)(=O)N(CCN(C)C)Cc1ccco1)OCC(=O)N2 -6.32%
CC(C)N(Cc1ccccc1)C(=O)CCS(=O)(=O)c1ccc2c(c1)oc(=O)n2C 5.72%
Cc1ccc(NC(=O)C2CCN(S(=O)(=O)c3c(C)noc3/C=C/c3ccco3)CC2)cc1C -2.68%
COc1ccccc1OCC(=O)Nc1nc(-c2ccc(Br)cc2)ns1 17.8%
Cc1nc(N2CCCC2)ncc1C(=O)Nc1ccc(F)cc1F 0.705%
O=C(c1ccc2c(c1)N(Cc1ccccc1F)C(=O)c1ccccc1S2=O)N1CCOCC1 (stereo not given) 44.9%
CC(C)(C)CC(=O)NC1CC(=O)N(c2ccc3c(c2)OCCO3)C1 (stereo not given) 6.01%
Cc1c(Cl)cccc1NC(=O)Cn1cnc2nc3c(cc2c1=O)CCCC3 2.83%
Cc1ccc(-n2ncc3c(N4CCC(Cc5ccccc5)CC4)ncnc32)cc1 1.98%
Cc1ccc(CN2CCc3nc(N4CCN(C)CC4)ncc3C2)s1 -1.22%
CN(Cc1ccccc1)S(=O)(=O)c1nnc(NC(=O)c2ccccc2)s1 6.06%
CCCCCN=C(N)NN=Cc1c[nH]c2ccc(OC)cc12 -8.73%
CCc1ccc(C(=O)c2cn(CC(=O)Nc3ccc(C)c(C)c3)c3ccccc3c2=O)cc1 -6.77%
O=C(NCC1CCCO1)c1c[nH]c2ccc(S(=O)(=O)Nc3cccc(C(F)(F)F)c3)cc2c1=O (stereo not given) 1.37%
Cc1ccc2c(c1)cc1c(=O)n(CC(=O)N3CCCCC3)nc(C)n12 3.6%
Cc1cccc(N(C)C(=O)CSc2nc3ncccc3o2)c1 -1.15%
Cc1cccc(N(C)C(=O)CCNS(=O)(=O)c2ccc3c(c2)CCN3C(=O)C2CC2)c1 63.9%
N#Cc1ccc(CSc2nc3c(c(=O)[nH]2)CCCC3)cc1 11.3%
O=c1c(O)c(-c2ccc(O)cc2O)oc2cc(O)cc(O)c12 -9.21%
COc1ccc(C2CNC(=O)C2)cc1OC1CCCC1 (stereo not given) -4.56%
Cn1ncc2c(Nc3cccc(F)c3)ncnc21 -8.74%
Fc1ccc2ncc3c(-c4ccccc4)n[nH]c3c2c1 0.658%
CC(C)Sc1ncc(Cl)c(C(=O)Nc2ccc(S(=O)(=O)N(C)c3ccccc3)cc2)n1 5.33%
Cc1ccc(C)c(CS(=O)(=O)c2cn(CC(=O)N(C(C)C)C(C)C)c3ccccc23)c1 0.26%
COC(=O)CCn1cnc2onc(-c3cc(F)cc(F)c3)c2c1=O 6.98%
O=C(Nc1c(C(=O)Nc2ccccc2F)oc2ccccc12)c1cc2ccccc2o1 -6.19%
CCOc1ccc(C(=O)N2CCC(c3noc(-c4ccc(S(=O)(=O)N5CCCC5)cc4)n3)CC2)cc1 -1.94%
Cc1ccc(OCCn2nnc3sc4c(c3c2=O)CCC(C)C4)cc1 (stereo not given) 2.79%
COc1cc(NC(=O)Cn2c(=O)n(Cc3ccco3)c(=O)c3oc4ccccc4c32)cc(OC)c1 -0.68%
Cc1cc(C)cc(NS(=O)(=O)c2ccc3[nH]cc(C(=O)NCc4ccccc4Cl)c(=O)c3c2)c1 -8.24%
CC(=O)Nc1nc(C)c(-c2ccc(Cl)c(S(=O)(=O)NCCO)c2)s1 -13.1%
CCOc1ccc(NC(=O)c2cc(=O)c3ccc(C)c(C)c3o2)cc1 -6.96%
COc1ccc2occ(CC(=O)Nc3ccc(S(=O)(=O)Nc4nc(C)cc(C)n4)cc3)c2c1 1.14%
COc1ccc(C2C(C(=O)Nc3ccc(C)cc3C)=C(C)Nc3nc4ccccc4n32)c(OC)c1 (stereo not given) -13.5%
O=C1CSC2(C(=O)N(Cc3ccccc3)c3ccccc32)N1c1ccc(Cl)cc1 (stereo not given) 3.02%
CCN(c1ccccc1)c1nnc(NC(=O)Nc2ccc(Br)cc2F)s1 2.89%
O=C(Nc1ccc(Br)cc1F)N1CCC2(CC1)Oc1ccccc1C(=O)N2Cc1ccccc1F 5.22%
COc1ccc(N2CCN(c3nc4ccc(C)cc4n4nnnc34)CC2)cc1 4.44%
CCOc1ccc2c(c1)NC(c1cccs1)=NC(c1ccc(F)cc1)=N2 -0.792%
COC(=O)c1ccc(Cn2nnc3c(=O)[nH]c(C4CCCN(S(=O)(=O)c5cccc(Cl)c5)C4)nc32)cc1 (stereo not given) 0.159%
COc1ccc2c(c1)cc1c(=O)n(CC(=O)NCCCc3ccccc3)nc(C)n12 1.88%
COc1cccc2c1Oc1ncccc1N(C(=O)CCC(=O)NCc1ccccc1Cl)C2 0.406%
CCC(C)NC(=O)C1=CC(c2ccc3c(c2)OCO3)=NS(=O)(=O)N1C (stereo not given) 2.76%
COC(=O)c1cc(NC(=O)Cn2nc(-c3ccc(C)c(C)c3)ccc2=O)cc(C(=O)OC)c1 18.4%
COc1ccc(Cc2nc3ccccc3n2Cc2ccccc2F)cc1 -0.794%
Cc1ccccc1CSc1ncc(CO)n1Cc1ccc(F)cc1 14.7%
CC(O)CNc1nc2c(c(=O)n(Cc3ccc(Cl)cc3)c(=O)n2C)n1C (stereo not given) -5.53%
CCC1CN(C(=O)Nc2ccc(C)c(F)c2)c2ccccc2S1 (stereo not given) -2.76%
Cc1nnc(N2CCC(C(=O)NCCc3ccccc3)CC2)c2nn(-c3ccc(Cl)cc3)c(C)c12 -6.19%
CCOc1ccc(-n2nc3cc(C)c(NC(=O)c4cc(OCC)c(OCC)c(OCC)c4)cc3n2)cc1 -0.693%
CC(C)(C)C(=O)NC1(C(F)(F)F)C(=O)Nc2c1c(=O)[nH]c(=O)n2-c1ccccc1 (stereo not given) 5.33%
Cc1ccc(NC(=O)CN2CCSc3ccc(S(=O)(=O)N4CCCC4)cc32)cc1C -2.18%
O=C1CN(C(=O)c2ccc(S(=O)(=O)N3CCCC3)cc2)C(c2ccccc2)c2cc(Br)ccc2N1 (stereo not given) 1.03%
CCOc1ccc(-c2nnc(SCC(=O)NCc3ccccc3)o2)cc1 -7.96%
Cc1nncn1-c1ccc(C(=O)Nc2cc(F)ccc2F)cc1 -12.8%
CN(C(=O)CCS(=O)(=O)c1cc2c(cc1Cl)NC(=O)CO2)C1CCCCC1 22.6%
O=C(Nc1ccc2nc(SCC(=O)N3CCc4ccccc43)sc2c1)c1cccc(Cl)c1 7.32%
COc1cc(OC)c(OC)cc1CNc1sc2c(c1C(=O)Nc1ccccc1OC)CCC2 -16.6%
CCn1c(C(=O)N2CCCC(C(=O)N3CCN(c4cc(C)ccc4C)CC3)C2)cc2sccc21 (stereo not given) -3%
CCN(CC)c1ccc(NC(=O)c2sc3nc4c(cc3c2N)CN(C)CC4)cc1 -2.64%
COc1ccc(NC(=O)c2cc3c(=O)n(Cc4cccnc4)ccc3nc2C)cc1OC -12.7%
COc1cc2c(cc1OC)C(COc1cc(C)cc(C)c1)N(C(=O)COc1ccccc1)CC2 (stereo not given) 20.2%
COc1ccc(-n2c(=O)c3ccccc3n(CC(=O)NCCc3ccc(OC)c(OC)c3)c2=O)cc1 14.8%
Cc1ccccc1CCNC(=O)c1cc2cc(S(=O)(=O)N3CCCCC3)ccc2n1C 3.94%
CCn1c(=N)c(C(=O)NC2CCCCC2)cc2c(=O)n3cc(C)ccc3nc21 23.7%
COc1ccc(C)cc1NS(=O)(=O)c1cc2c3c(c1)CC(=O)N3CCC2 -6.86%
COc1ccc(NC(=O)CSc2nc3nc(C)c(Cc4ccccc4Cl)c(C)n3n2)cc1OC 0.317%
Cc1ccc(C2=Nc3ccccc3N(CC(=O)NCc3ccccc3Cl)C(=O)C2)cc1C 5.76%
COc1ccc(-n2ncc(C(=O)Nc3cccc(C(F)(F)F)c3)c2C2CCN(C(=O)OC(C)(C)C)CC2)cc1 -28.6%
